# The campaign covered roughly 240,000 compounds. About 20 (0.008%) were called active. Inconclusive means that the source gave no clear call. Such entries were picked first, then a sample of the others. Calls come from the whole dose curve; as a rule, active = well fitted inhibition curve with a large enough effect; inconclusive = small, poorly fitted or top-dose-only effect, or effect the other way; inactive = flat fitted curve, though single readings scatter. Potencies of inconclusive entries are left out as doubtful fits.
# Biological target: Alpha-galactosidase A (Homo sapiens) (UniProt P06280)
# UniProt P06280, sequence (P06280 whole entry, looked up): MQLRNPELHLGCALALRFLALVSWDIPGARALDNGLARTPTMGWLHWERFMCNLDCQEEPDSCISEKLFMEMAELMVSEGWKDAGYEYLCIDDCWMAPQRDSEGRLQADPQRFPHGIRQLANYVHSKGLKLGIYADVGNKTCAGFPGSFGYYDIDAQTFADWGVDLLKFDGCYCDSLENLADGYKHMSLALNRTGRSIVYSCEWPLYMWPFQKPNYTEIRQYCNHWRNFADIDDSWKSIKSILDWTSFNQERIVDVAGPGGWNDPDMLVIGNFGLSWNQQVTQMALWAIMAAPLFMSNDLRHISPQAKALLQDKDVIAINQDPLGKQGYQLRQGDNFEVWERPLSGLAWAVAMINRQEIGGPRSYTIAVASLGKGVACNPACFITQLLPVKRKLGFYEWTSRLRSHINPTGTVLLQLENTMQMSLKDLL
# Assay: qHTS Assay for Inhibitors and Activators of Human alpha-Galactosidase From Spleen Homogenate;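 for activity change, negative = inhibition: 0% = enzyme with vehicle and -100% = no enzyme basal signal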
# Details: 4MU-alpha-Gal fluorescence, 40 min; activity change, negative = inhibition: at 80 µM (top of the series)
# Procedure, shortened: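 Spleen homogenate 1 ug + cpd (titration) + 4-MU-alpha-D-galactopyranoside 1 mM; 37C 40 min; 50 mM citrate/phosphate pH 5.0, 0.01% Tween-20; stop pH 10; fluorescence 365/440; AC50 via Hill.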
# Potency is the fitted concentration of half-maximal effect; tags give direction and shape of the fitted curve.
SMILES,Potency,"activity change, negative = inhibition"
CCOC(=O)C1CCN(C(=O)c2cn(CCOC)c(=O)c3c2c2ccccc2n3C)CC1,"inconclusive [activator, single point]",–
CCOc1ccc(NC(=O)NCc2ccco2)cc1,inactive,–
Cc1cc(C)c(S(=O)(=O)n2ccc3ccccc32)c(C)c1,inactive,–
COC(=O)c1ccc(C2C(C#N)=C(N)Oc3cc(C)n(C)c(=O)c32)cc1 (centres undefined),inactive,–
CCOC(=O)c1sc2c(c1C)C(c1cccs1)C1=C(CCCC1=O)N2 (centres undefined),"inconclusive [activator, partial curve]",–
COC(=O)CSc1ccc2c(N)c(C(=O)OC)sc2c1,"inconclusive [activator, single point]",–
Cc1ccc(/C=C/C(=O)Nc2ncc(C)s2)o1,inactive,–
CC1(C)CC(=O)C(=Cc2cn(-c3ccccc3)nc2-c2ccc(Cl)cc2)C(=O)C1,"inconclusive [activator, full curve, poor fit]",–
Cc1cccc(OCC(=O)Nc2cccc(C(=O)Nc3ccccc3C(=O)O)c2)c1,"inconclusive [inhibitor, single point]",–
CC12C=C(/C=C/c3ccccc3)C(C)(C1)C(c1ccccc1)CC2=O (centres undefined),–,inactive: -0.668% [at 17.5 µM]
CCCCNC(=O)COC(=O)c1ccc(N(C)C)cc1,"inconclusive [inhibitor, single point]",–
[O-]/[N+](=C\c1ccc(OC(F)F)cc1)c1ccccc1,inactive,–
COC(=O)c1c(-c2ccncc2)csc1NC(=O)c1ccoc1C,inactive,–
O=C(NCCCN1CCOCC1)c1cccs1,"inconclusive [inhibitor, partial curve]",–
Cc1c(NC(=O)Nc2ccc(Cl)cc2Cl)c(=O)n(-c2ccccc2)n1C,inactive,–
Cc1ccc(S(=O)(=O)NC(C(=O)Oc2cc3oc(=O)cc(C)c3cc2Cl)C(C)C)cc1 (centres undefined),"inconclusive [activator, partial curve]",–
COc1ccc(-c2cc(C(F)(F)F)nc(-n3cncn3)n2)cc1,"inconclusive [activator, full curve, poor fit]",–
C#CCn1c(=O)c2c(nc(/C=C/c3cccc(OC)c3)n2C)n(CCCOP(=O)(O)O)c1=O,"inconclusive [activator, partial curve, poor fit]",–
COc1ccc(C2C3=C(CCCC3=O)Nc3c(-c4ccccc4)c(C)nn32)cc1 (centres undefined),"inconclusive [activator, single point]",–
O=C(Nc1ccccc1)C1=C[C@H](C2CCCCC2)C[C@H](OCc2ccc(CO)cc2)O1,inactive,–
CCN(C(=O)N(CC)c1ccccc1)c1ccccc1,"inconclusive [inhibitor, partial curve, poor fit]",–
CC(=O)Oc1ccc2ccc(=O)oc2c1,"inconclusive [activator, partial curve]",–
COc1cc2cc(C(c3nnnn3Cc3ccc(F)cc3)N3CCCCCC3)c(=O)[nH]c2cc1OC (centres undefined),"inconclusive [activator, single point]",–

SMILES,Potency,"activity change, negative = inhibition"
COc1cc(C2CC(c3cccnc3)=NN2c2ccc(F)cc2)cc(OC)c1OC (centres undefined),"inconclusive [activator, single point]",–
CN(CC(=O)Nc1ccc(F)cc1)C(=O)CSc1nc2ncc(Cl)cc2[nH]1,inactive,–
Cc1ccc(NC(=O)CSc2nnc(NC(=O)CN3CCOCC3)s2)cc1,"inconclusive [inhibitor, partial curve]",–
COCCn1c(=O)c(-c2ccc(Cl)cc2)nc2cnc(N(C)C)nc21,"inconclusive [activator, single point]",–
COC(=O)Cc1c(C)c2ccc(OC(=O)c3ccco3)cc2oc1=O,"inconclusive [activator, partial curve]",–
COC(CNC(=O)c1coc2nc3ccccc3nc12)OC,"inconclusive [activator, partial curve]",–
COc1cc2c(cc1OC)C(CCc1ccccc1)=NCC2,"inconclusive [activator, partial curve]",–
Cc1cccc2cc(COC(=O)C(C)(C)C)c(=O)[nH]c12,"inconclusive [inhibitor, partial curve]",–
N#C/C(=C(/O)CCl)c1nnc2n1CCCCC2,inactive,–
COC(=O)C1=CNC=C(C(=O)OC)C1c1ccccc1Cl,"inconclusive [activator, partial curve]",–
COc1ccccc1N1CCN(C(=O)c2oc3ccccc3c2C)CC1,"inconclusive [inhibitor, single point]",–
O=C(NNc1ccc(-c2csnn2)cc1)c1cc(Cl)cc(Cl)c1,inactive,–
CCCN(C(=O)c1ccco1)c1nnc(-c2ccccc2C)s1,"inconclusive [inhibitor, partial curve, poor fit]",–
COC(=O)c1sc2ccccc2c1N,"inconclusive [activator, partial curve]",–
c1ccc2c(c1)NC1(CCCC1)n1c-2nc2ccccc21,"inconclusive [activator, partial curve]",–
O=C(Nc1ccc(C(=O)N2CCOCC2)cc1)Nc1cccc(Cl)c1,inactive,–
CC(=C/c1ccccc1)/C=N/n1c(-c2ccncc2)n[nH]c1=S,inactive,–
Oc1ccc(Cl)cc1-c1cc(-c2ccco2)[nH]n1,inactive,–
Nc1ccc2nc(-c3ccccc3)sc2c1,"inconclusive [activator, partial curve]",–
Cn1c(SCc2nnc(-c3ccccc3Br)o2)nc2sc3c(c2c1=O)CCC3,"inconclusive [inhibitor, partial curve, poor fit]",–
CNc1nc2sc3c(c2c(=O)n1C)CC(C)(C)SC3,"inconclusive [activator, single point]",–
O=C(c1ccc(Cl)cc1Cl)n1nnc2ccccc21,"inconclusive [activator, full curve, poor fit]",–
COc1ccc(OC)c(/C=N/NC(=O)Cn2ccnc2C)c1,"inconclusive [activator, partial curve]",–

SMILES,Potency,"activity change, negative = inhibition"
NS(=O)(=O)c1cccc(NC(=O)CCSc2ccc(Cl)cc2)c1,"inconclusive [inhibitor, single point]",–
COc1ccccc1NC(=O)CSc1nc(O)cc(=O)n1C,"inconclusive [inhibitor, single point]",–
O=C(c1nc2nc(-c3cccs3)cc(C(F)(F)F)n2n1)N1CCN(Cc2ccccc2)CC1,"inconclusive [activator, single point]",–
CC(C)OCCCn1c(=NC(=O)c2ccncc2)c(C#N)cc2c(=O)n3ccccc3nc21,"inconclusive [activator, partial curve]",–
CC[C@@H]1C(c2ccccc2)=NN(c2ccc(Br)cc2)[C@H]1C(=O)N1CCOC1=O,"inconclusive [activator, partial curve]",–
COc1ccccc1-c1ccc(/C=C2/C=C(C)OC2=O)o1,"inconclusive [activator, single point]",–
COc1cccc(C2C3=C(CCCC3=O)Nc3nc(-c4cc(OC)c(OC)c(OC)c4)nn32)c1 (centres undefined),"inconclusive [activator, partial curve, poor fit]",–
CCOc1ccccc1OCC(=O)O,"inconclusive [inhibitor, partial curve]",–
COc1ccccc1N=c1oc2cc(O)ccc2cc1C(=O)NCC1CCCO1 (centres undefined),"inconclusive [activator, partial curve]",–
O=C1c2ccccc2CCC1CNCCc1ccc(O)cc1 (centres undefined),inactive,–
Cc1cnc(CNc2cc(-c3cccnc3)ncn2)cn1,inactive,–
c1csc(-c2ccnc3ncnn23)c1,"inconclusive [activator, single point]",–
O=c1c(-c2ccc(F)cc2)nc2cnc(N3CCNCC3)nc2n1C1CC1,"inconclusive [activator, partial curve]",–
COc1ccc2c(c1)-c1c(sn(-c3ccccc3)c1=S)C(C)(C)N2,"inconclusive [inhibitor, full curve, poor fit]",–
CCOc1cc(CNc2ccc(N3CCOCC3)cc2)cc(Br)c1OCC,inactive,–
Cc1cc2nc(C)c(=O)n(C)c2cc1C,"inconclusive [activator, single point]",–
O=c1oc2cc(Oc3c([N+](=O)[O-])cc(C(F)(F)F)cc3[N+](=O)[O-])ccc2c2c1CCCC2,"inconclusive [activator, partial curve]",–
CC1CCCC(C)N1NC(=O)c1ccc(Cl)c(S(N)(=O)=O)c1 (centres undefined),"inconclusive [inhibitor, partial curve]",–
C(=C/c1nccc2c1[nH]c1ccccc12)/c1ccc2c(c1)OCO2,"inconclusive [activator, single point]",–
CCCN1C(=O)c2cc(C(=O)NC3CCCCCC3)ccc2C1O (centres undefined),inactive,–
CCOC(=O)c1cn(CC(=O)Nc2ccc(C)cc2)nn1,"inconclusive [activator, single point]",–
COC(=O)c1cc(NC(=O)c2cc(C(C)(C)C)nn2Cc2ccc(F)cc2)ccc1N1CCOCC1,"inconclusive [inhibitor, single point]",–
CCC(C)(C)n1nnnc1C(c1cc2cc3c(cc2[nH]c1=O)OCO3)N1CCN(C)CC1 (centres undefined),"inconclusive [activator, single point]",–
